Experimental data taken from the supplement of paper PMC4967469.
By IC50 is meant the dose at which the fit gives 50% viability; fits outside the tested doses are given as limits. AUC sums up the same curve from the lowest dose to the 256-fold higher top dose: 1 means no effect, lower means more sensitive.

Compound: CC[C@H](Nc1ncnc2[nH]cnc12)c1nc2cccc(F)c2c(=O)n1-c1ccccc1 [CAL-101]
Experiment: Viability of human cancer cell lines after 72 h of drug (GDSC screen)
Procedure: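 Human cancer cell lines in 384-well plates, medium with 10% serum, drug for 72 h over a 256-fold dose range (nine 2-fold or five 4-fold steps up to the top dose). Adherent lines were fixed and stained with the nucleic acid dye Syto60, suspension lines read with resazurin; signal relative to control wells, capped at 0 and 100%. One two-parameter sigmoid per drug and line, fitted in a mixed model over all curves with the slope shared within a line.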

## HCC-78 (lung adenocarcinoma, adherent, top dose 20 µM)
  AUC: 0.872
  IC50: > 20 µM

## HCC-827 (lung adenocarcinoma, adherent, top dose 20 µM)
  AUC: 0.951
  IC50: > 20 µM

## HCE-4 (oesophagus, adherent, top dose 20 µM)
  AUC: 0.983
  IC50: > 20 µM

## HCT-15 (large intestine, adherent, top dose 20 µM)
  AUC: 0.984
  IC50: > 20 µM

## HD-MY-Z (Hodgkin lymphoma, adherent, top dose 20 µM)
  AUC: 0.929
  IC50: > 20 µM

## HDLM-2 (Hodgkin lymphoma, suspension, top dose 20 µM)
  AUC: 0.962
  IC50: > 20 µM

## HDQ-P1 (breast, adherent, top dose 20 µM)
  AUC: 0.974
  IC50: > 20 µM

## HEC-1 (endometrium, adherent, top dose 20 µM)
  AUC: 0.987
  IC50: > 20 µM

## HEL (acute myeloid leukaemia, semi-adherent, top dose 20 µM)
  AUC: 0.949
  IC50: > 20 µM

## HGC-27 (stomach, adherent, top dose 20 µM)
  AUC: 0.962
  IC50: > 20 µM

## HH (T-cell leukaemia, suspension, top dose 20 µM)
  AUC: 0.495
  IC50: 1.21 µM

## HL-60 (acute myeloid leukaemia, suspension, top dose 20 µM)
  AUC: 0.923
  IC50: > 20 µM

## HLE (liver, adherent, top dose 20 µM)
  AUC: 0.989
  IC50: > 20 µM

## HMV-II (melanoma, adherent, top dose 20 µM)
  AUC: 0.962
  IC50: > 20 µM

## HN (head and neck, adherent, top dose 20 µM)
  AUC: 0.983
  IC50: > 20 µM

## HO-1-N-1 (head and neck, adherent, top dose 20 µM)
  AUC: 0.972
  IC50: > 20 µM

## HO-1-u-1 (head and neck, adherent, top dose 20 µM)
  AUC: 0.986
  IC50: > 20 µM

## HOP-62 (lung adenocarcinoma, adherent, top dose 20 µM)
  AUC: 0.933
  IC50: > 20 µM

## HOP-92 (large cell lung carcinoma, adherent, top dose 20 µM)
  AUC: 0.98
  IC50: > 20 µM

## HOS (osteosarcoma, adherent, top dose 20 µM)
  AUC: 0.992
  IC50: > 20 µM

## HPAC (pancreas, adherent, top dose 20 µM)
  AUC: 0.895
  IC50: > 20 µM

## HPAF-II (pancreas, adherent, top dose 20 µM)
  AUC: 0.887
  IC50: > 20 µM

## HSC-2 (head and neck, adherent, top dose 20 µM)
  AUC: 0.982
  IC50: > 20 µM

## HSC-3 (head and neck, adherent, top dose 20 µM)
  AUC: 0.99
  IC50: > 20 µM

## HSC-4 (head and neck, adherent, top dose 20 µM)
  AUC: 0.975
  IC50: > 20 µM

## HSC-39 (stomach, suspension, top dose 20 µM)
  AUC: 0.986
  IC50: > 20 µM

## HT55 (large intestine, adherent, top dose 20 µM)
  AUC: 0.988
  IC50: > 20 µM

## HT (B-cell lymphoma, suspension, top dose 20 µM)
  AUC: 0.918
  IC50: > 20 µM

## HT-3 (cervix, adherent, top dose 20 µM)
  AUC: 0.983
  IC50: > 20 µM

## HT-29 (large intestine, adherent, top dose 20 µM)
  AUC: 0.952
  IC50: > 20 µM

## HT-115 (large intestine, adherent, top dose 20 µM)
  AUC: 0.991
  IC50: > 20 µM

## HT-144 (melanoma, adherent, top dose 20 µM)
  AUC: 0.981
  IC50: > 20 µM

## HT-1080 (fibrosarcoma, adherent, top dose 20 µM)
  AUC: 0.986
  IC50: > 20 µM

## HT-1197 (bladder, adherent, top dose 20 µM)
  AUC: 0.985
  IC50: > 20 µM

## HT-1376 (bladder, adherent, top dose 20 µM)
  AUC: 0.981
  IC50: > 20 µM

## HTC-C3 (thyroid, adherent, top dose 20 µM)
  AUC: 0.911
  IC50: > 20 µM

## HUTU-80 (digestive system, adherent, top dose 20 µM)
  AUC: 0.934
  IC50: > 20 µM

## HeLa (cervix, adherent, top dose 20 µM)
  AUC: 0.988
  IC50: > 20 µM

## Hep 3B2_1-7 (liver, adherent, top dose 20 µM)
  AUC: 0.987
  IC50: > 20 µM

## Hey (ovary, adherent, top dose 20 µM)
  AUC: 0.977
  IC50: > 20 µM

## Hs633T (fibrosarcoma, adherent, top dose 20 µM)
  AUC: 0.979
  IC50: > 20 µM

## Hs683 (glioma, adherent, top dose 20 µM)
  AUC: 0.964
  IC50: > 20 µM

## Hs746T (stomach, adherent, top dose 20 µM)
  AUC: 0.599
  IC50: 2.57 µM

## Hs766T (pancreas, adherent, top dose 20 µM)
  AUC: 0.954
  IC50: > 20 µM

## Hs939-T (melanoma, adherent, top dose 20 µM)
  AUC: 0.986
  IC50: > 20 µM

## Hs940-T (melanoma, adherent, top dose 20 µM)
  AUC: 0.946
  IC50: > 20 µM

## Hs-445 (Hodgkin lymphoma, suspension, top dose 20 µM)
  AUC: 0.863
  IC50: 15.2 µM

## Hs-578-T (breast, adherent, top dose 20 µM)
  AUC: 0.987
  IC50: > 20 µM

## HuCCT1 (biliary tract, adherent, top dose 20 µM)
  AUC: 0.902
  IC50: > 20 µM

## HuH-7 (liver, adherent, top dose 20 µM)
  AUC: 0.973
  IC50: > 20 µM

## HuO9 (osteosarcoma, adherent, top dose 20 µM)
  AUC: 0.887
  IC50: > 20 µM

## HuO-3N1 (osteosarcoma, adherent, top dose 20 µM)
  AUC: 0.924
  IC50: > 20 µM

## HuP-T3 (pancreas, adherent, top dose 20 µM)
  AUC: 0.9
  IC50: > 20 µM

## HuP-T4 (pancreas, adherent, top dose 20 µM)
  AUC: 0.954
  IC50: > 20 µM

## IA-LM (large cell lung carcinoma, adherent, top dose 20 µM)
  AUC: 0.98
  IC50: > 20 µM

## IGR-1 (melanoma, adherent, top dose 20 µM)
  AUC: 0.99
  IC50: > 20 µM

## IHH-4 (thyroid, semi-adherent, top dose 20 µM)
  AUC: 0.992
  IC50: > 20 µM

## IM-95 (stomach, adherent, top dose 20 µM)
  AUC: 0.904
  IC50: > 20 µM

## IMR-5 (neuroblastoma, adherent, top dose 20 µM)
  AUC: 0.984
  IC50: > 20 µM

## IPC-298 (melanoma, adherent, top dose 20 µM)
  AUC: 0.98
  IC50: > 20 µM

## IST-MEL1 (melanoma, adherent, top dose 20 µM)
  AUC: 0.892
  IC50: > 20 µM

## IST-MES1 (mesothelioma, adherent, top dose 20 µM)
  AUC: 0.979
  IC50: > 20 µM

## IST-SL1 (small cell lung carcinoma, semi-adherent, top dose 20 µM)
  AUC: 0.968
  IC50: > 20 µM

## IST-SL2 (small cell lung carcinoma, suspension, top dose 20 µM)
  AUC: 0.894
  IC50: > 20 µM

## J82 (bladder, adherent, top dose 20 µM)
  AUC: 0.969
  IC50: > 20 µM

## JAR (urogenital system, adherent, top dose 20 µM)
  AUC: 0.893
  IC50: > 20 µM

## JEG-3 (urogenital system, adherent, top dose 20 µM)
  AUC: 0.988
  IC50: > 20 µM

## JHH-1 (liver, adherent, top dose 20 µM)
  AUC: 0.849
  IC50: 17 µM

## JHH-2 (liver, adherent, top dose 20 µM)
  AUC: 0.983
  IC50: > 20 µM

## JHH-4 (liver, adherent, top dose 20 µM)
  AUC: 0.961
  IC50: > 20 µM

## JHH-6 (liver, adherent, top dose 20 µM)
  AUC: 0.986
  IC50: > 20 µM

## JHH-7 (liver, adherent, top dose 20 µM)
  AUC: 0.989
  IC50: > 20 µM

## JHOS-2 (ovary, adherent, top dose 20 µM)
  AUC: 0.979
  IC50: > 20 µM

## JHOS-3 (ovary, adherent, top dose 20 µM)
  AUC: 0.964
  IC50: > 20 µM

## JHU-011 (head and neck, adherent, top dose 20 µM)
  AUC: 0.943
  IC50: > 20 µM

## JHU-022 (head and neck, adherent, top dose 20 µM)
  AUC: 0.947
  IC50: > 20 µM

## JIMT-1 (breast, adherent, top dose 20 µM)
  AUC: 0.969
  IC50: > 20 µM

## JJN-3 (haematopoietic neoplasm, suspension, top dose 20 µM)
  AUC: 0.983
  IC50: > 20 µM

## JM1 (B-cell lymphoma, suspension, top dose 20 µM)
  AUC: 0.878
  IC50: 15.4 µM

## JSC-1 (B-cell lymphoma, suspension, top dose 20 µM)
  AUC: 0.917
  IC50: > 20 µM

## JURL-MK1 (chronic myeloid leukaemia, suspension, top dose 20 µM)
  AUC: 0.975
  IC50: > 20 µM

## JVM-2 (lymphoid neoplasm, suspension, top dose 20 µM)
  AUC: 0.921
  IC50: > 20 µM

## JVM-3 (lymphoid neoplasm, suspension, top dose 20 µM)
  AUC: 0.987
  IC50: > 20 µM
